# This is one part of the list.
# B1: Gal 3 (Homo sapiens), P17931 (protein)
# chain: MADNFSLHDALSGSGNPNPQGWPGAWGNQPAGAGGYPGASYPGAYPGQAPPGAYPGQAPPGAYHGAPGAYPGAPAPGVYPGPPSGPGAYPSSGQPSAPGAYPATGPYGAPAGPLIVPYNLPLPGGVVPRMLITILGTVKPNANILDFQRGNDVAFHFNPRFNENNRRVIVCNTKLDNNWAREERQSVFPFESGKPFKIQVLVEPDHFKVAVNDAHLLQYNHRVKKLNEISKLGISGDIDLTSASYTMI
# Tests used:
# Experiment in all cases: glycan array binding signal (z-score within array); higher = stronger binding
# Details in all cases: glycan notation: IUPAC condensed, linker removed; mutation: G182A
# [1] = molecular target: Gal(b1-4)GlcNAc(b1-3)Gal(b1-4)[Fuc(a1-3)]GlcNAc(b1-3)Gal(b1-4)[Fuc(a1-3)]GlcNAc
# Summary of the method: (§1)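 The binding signal is a Z-score computed within each array. Data were drawn from 3228 arrays in the Consortium for Functional Glycomics database, restricted to those with a known protein sequence. Scores were averaged over arrays of the same protein sequence at different concentrations or buffers, and over linkers, and negative values can be taken as non-binding.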
# [2] = molecular target: Gal(b1-4)GlcNAc(b1-3)GalNAc
# Summary of the method: as §1
# [3] = molecular target: Gal(b1-4)GlcNAc(b1-3)[Gal(b1-4)GlcNAc(b1-6)]Gal(b1-4)GlcNAc
# Summary of the method: as §1
# [4] = molecular target: Gal(b1-4)GlcNAc(b1-3)[Gal(b1-4)GlcNAc(b1-6)]GalNAc
# Summary of the method: as §1
# [5] = molecular target: Gal(b1-4)GlcNAc(b1-3)[GlcNAc(b1-6)]Gal(b1-4)GlcNAc
# Summary of the method: as §1
# [6] = molecular target: Gal(b1-4)GlcNAc(b1-6)Gal(b1-4)GlcNAc
# Summary of the method: as §1
# [7] = molecular target: Gal(b1-4)GlcNAc(b1-6)GalNAc
# Summary of the method: as §1
# [8] = molecular target: Gal(b1-4)GlcNAc(b1-6)[Gal(b1-3)]GalNAc
# Summary of the method: as §1
# Gal3S(b1-3)GalNAc = molecular target: Gal3S(b1-3)GalNAc
# Summary of the method: as §1
# Gal3S(b1-3)GlcNAc = molecular target: Gal3S(b1-3)GlcNAc
# Summary of the method: as §1
# [9] = molecular target: Gal3S(b1-3)[Fuc(a1-4)]GlcNAc
# Summary of the method: as §1
# Gal3S(b1-4)Glc = molecular target: Gal3S(b1-4)Glc
# Summary of the method: as §1
# Gal3S(b1-4)Glc6S = molecular target: Gal3S(b1-4)Glc6S
# Summary of the method: as §1
# Gal3S(b1-4)GlcNAc = molecular target: Gal3S(b1-4)GlcNAc
# Summary of the method: as §1
# Gal3S(b1-4)GlcNAc6S = molecular target: Gal3S(b1-4)GlcNAc6S
# Summary of the method: as §1
# [10] = molecular target: Gal3S(b1-4)[Fuc(a1-3)]Glc
# Summary of the method: as §1
# [11] = molecular target: Gal3S(b1-4)[Fuc(a1-3)]Glc6S
# Summary of the method: as §1
# Gal3S4S(b1-4)GlcNAc = molecular target: Gal3S4S(b1-4)GlcNAc
# Summary of the method: as §1
# Gal3S6S(b1-4)GlcNAc = molecular target: Gal3S6S(b1-4)GlcNAc
# Summary of the method: as §1
# Gal3S6S(b1-4)GlcNAc6S = molecular target: Gal3S6S(b1-4)GlcNAc6S
# Summary of the method: as §1
# Gal4S(b1-4)GlcNAc = molecular target: Gal4S(b1-4)GlcNAc
# Summary of the method: as §1
# Gal4S6S(b1-4)GlcNAc = molecular target: Gal4S6S(b1-4)GlcNAc
# Summary of the method: as §1
# Gal6S(b1-4)Glc = molecular target: Gal6S(b1-4)Glc
# Summary of the method: as §1
# Gal6S(b1-4)Glc6S = molecular target: Gal6S(b1-4)Glc6S
# Summary of the method: as §1
# Gal6S(b1-4)GlcNAc = molecular target: Gal6S(b1-4)GlcNAc
# Summary of the method: as §1
# Gal6S(b1-4)GlcNAc6S = molecular target: Gal6S(b1-4)GlcNAc6S
# Summary of the method: as §1
# GalNAc(a1-3)Gal = molecular target: GalNAc(a1-3)Gal
# Summary of the method: as §1
# GalNAc(a1-3)GalNAc = molecular target: GalNAc(a1-3)GalNAc
# Summary of the method: as §1
# [12] = molecular target: GalNAc(a1-3)GalNAc(a1-3)Gal(a1-4)Gal(b1-4)GlcNAc
# Summary of the method: as §1
# GalNAc(b1-3)Gal = molecular target: GalNAc(b1-3)Gal
# Summary of the method: as §1
# [13] = molecular target: GalNAc(b1-3)Gal(a1-4)Gal(b1-4)GlcNAc
# Summary of the method: as §1
# [14] = molecular target: GalNAc(b1-3)Gal(a1-4)Gal(b1-4)GlcNAc(b1-3)Gal(b1-4)Glc
# Summary of the method: as §1
# [15] = molecular target: GalNAc(b1-3)Gal(a1-6)Gal(b1-4)Glc
# Summary of the method: as §1
# GalNAc(b1-3)GalNAc = molecular target: GalNAc(b1-3)GalNAc
# Summary of the method: as §1
# GalNAc(b1-4)GlcNAc = molecular target: GalNAc(b1-4)GlcNAc
# Summary of the method: as §1
# [16] = molecular target: GalNAc(b1-4)GlcNAc(b1-2)Man(a1-3)[GalNAc(b1-4)GlcNAc(b1-2)Man(a1-6)]Man(b1-4)GlcNAc(b1-4)GlcNAc
# Summary of the method: as §1
# Glc(a1-4)Glc = molecular target: Glc(a1-4)Glc
# Summary of the method: as §1
binder,measurement,setting,value
B1,glycan array binding signal (z-score),[1],-0.192
same,glycan array binding signal (z-score),[2],-0.176
same,glycan array binding signal (z-score),[3],-0.163
same,glycan array binding signal (z-score),[4],-0.173
same,glycan array binding signal (z-score),[5],-0.188
same,glycan array binding signal (z-score),[6],-0.196
same,glycan array binding signal (z-score),[7],-0.19
same,glycan array binding signal (z-score),[8],-0.191
same,glycan array binding signal (z-score),Gal3S(b1-3)GalNAc,-0.183
same,glycan array binding signal (z-score),Gal3S(b1-3)GlcNAc,-0.061
same,glycan array binding signal (z-score),[9],-0.186
same,glycan array binding signal (z-score),Gal3S(b1-4)Glc,-0.181
same,glycan array binding signal (z-score),Gal3S(b1-4)Glc6S,-0.157
same,glycan array binding signal (z-score),Gal3S(b1-4)GlcNAc,-0.138
same,glycan array binding signal (z-score),Gal3S(b1-4)GlcNAc6S,0.037
same,glycan array binding signal (z-score),[10],-0.193
same,glycan array binding signal (z-score),[11],-0.181
same,glycan array binding signal (z-score),Gal3S4S(b1-4)GlcNAc,-0.192
same,glycan array binding signal (z-score),Gal3S6S(b1-4)GlcNAc,-0.196
same,glycan array binding signal (z-score),Gal3S6S(b1-4)GlcNAc6S,-0.184
same,glycan array binding signal (z-score),Gal4S(b1-4)GlcNAc,-0.19
same,glycan array binding signal (z-score),Gal4S6S(b1-4)GlcNAc,-0.193
same,glycan array binding signal (z-score),Gal6S(b1-4)Glc,-0.182
same,glycan array binding signal (z-score),Gal6S(b1-4)Glc6S,-0.167
same,glycan array binding signal (z-score),Gal6S(b1-4)GlcNAc,-0.187
same,glycan array binding signal (z-score),Gal6S(b1-4)GlcNAc6S,-0.185
same,glycan array binding signal (z-score),GalNAc(a1-3)Gal,-0.192
same,glycan array binding signal (z-score),GalNAc(a1-3)GalNAc,-0.19
same,glycan array binding signal (z-score),[12],-0.195
same,glycan array binding signal (z-score),GalNAc(b1-3)Gal,-0.186
same,glycan array binding signal (z-score),[13],-0.198
same,glycan array binding signal (z-score),[14],-0.172
same,glycan array binding signal (z-score),[15],-0.19
same,glycan array binding signal (z-score),GalNAc(b1-3)GalNAc,-0.193
same,glycan array binding signal (z-score),GalNAc(b1-4)GlcNAc,-0.192
same,glycan array binding signal (z-score),[16],-0.173
same,glycan array binding signal (z-score),Glc(a1-4)Glc,-0.194

# Reference: the supplement of paper PMC8728848
